The campaign covered roughly 45,000 compounds. About 200 (0.44%) were called active. Roughly 7% stayed inconclusive and do not appear here. Calls come from the whole dose curve; as a rule, active = well fitted activation curve with a large enough effect; inconclusive = small, poorly fitted or top-dose-only effect; inactive = no such curve, though single readings can be large or run the other way. This is one part of the list.
Test: qHTS of TDP-43 Inhibitors: NCGC Sytravon Library Screen; note: 0% is about no effect; nearly all actives have a fitted effect of over 55% in size
Conditions: yeast TDP-43 toxicity rescue, BacTiter-Glo growth, 24 h; series mostly up to 46.1 µM; growth rescue (activation): at the top concentration
Method in brief: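 TDP-43-expressing yeast, pregrown in raffinose, seeded at OD600 0.02 in galactose medium with compound for 24 hr at 30 deg C. Growth read by BacTiter-Glo luminescence, so rescue of toxicity appears as activation.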

SMILES	growth rescue (activation)
NC(=O)c1nsc(C(=O)N(Cc2ccccc2Cl)C(C(=O)NCC2CCCO2)c2ccc(O)cc2)c1N (configuration not stated)	inactive: 17.1%
O=C(NCCCN1CCCC1=O)c1ccccc1OCc1ccc(Cl)cc1Cl	inactive: -12.4%
COc1ccc(CNC(=O)Cn2ccc([N+](=O)[O-])n2)cc1OC	inactive: -10.5%
CCc1c(C)nc(SCC(=O)Nc2ccc3c(c2)OCCO3)[nH]c1=O	inactive: -6.91%
COc1cccc(CC2(CO)CCN(S(=O)(=O)c3ccc(OC)cc3OC)CC2)c1	inactive: -6.11%
O=C(Nc1ccccc1F)c1csc(COCCO)n1	inactive: 14%
O=C(NCc1ccco1)/C(=C/c1ccc(F)cc1)NC(=O)c1ccccc1	inactive: 5.1%
CC(C)c1nc2sc3c(=O)[nH]cnc3c2c2c1CCCC2	inactive: 12.1%
O=C(CCN1CCN(C(=O)c2ccccc2)CC1)c1ccc(Br)cc1	inactive: -16.4%
CN1CCN(CCCCOc2ccccc2-c2ccccc2)CC1	inactive: 8.36%
CN(C)CCCOC(=O)Cc1ccc(Cl)cc1	inactive: 11.7%
CCN1CCN(S(=O)(=O)c2ccc(Cl)c(C(=O)NCc3nc4ccccc4[nH]3)c2)CC1	inactive: 7.93%
Cc1ccnc2nc(C(=O)OCC(=O)N(CC(C)C)CC(C)C)nn12	inactive: 7.5%
COc1cccc(/C=C2\CCCCC2=O)c1	inactive: 15.4%
COc1cc(C2C(C(=O)c3ccc(C)o3)=C(O)C(=O)N2CCc2ccccc2)ccc1O (configuration not stated)	inactive: 24%
O=C1CCCN1CCCNC(=S)Nc1ccc(F)c(Cl)c1	inactive: 12.3%
Cc1cccc(NC(=O)Cn2nc(-c3ccco3)ccc2=O)c1C	inactive: -1.7%
COCCNC(=O)/C(C#N)=C/c1c(N2CCN(c3ccc(OC)cc3)CC2)nc2c(C)cccn2c1=O	inactive: 3.82%
O=C(Cc1cc(=O)[nH][nH]1)N/N=C/c1ccccc1Cl	inactive: 15.4%
Cn1c(=O)n(C)c2cc(/C=N/N=C3/NC(=O)C(CC(=O)O)S3)ccc21 (configuration not stated)	inactive: 0.409%
O=C(NCC1CCCO1)c1cccc(Oc2c(Cl)cccc2[N+](=O)[O-])c1 (configuration not stated)	inactive: 16.7%
Cc1cccc(CSCCNC(=O)Nc2ccccc2)c1	inactive: 20.2%

SMILES	growth rescue (activation)
CCOc1ccccc1NC(=O)COC(=O)c1cc(C)oc1C	inactive: 9.15%
CCOC(=O)Cc1ccc(Nc2nc(NC)nc3ccsc23)cc1	inactive: 17.2%
CCc1ccccc1NC(=O)CCc1c(C)nc(SC)nc1C	inactive: -6.56%
O=C(CCc1ccccc1)NNC(=O)COc1ccccc1Cl	inactive: 6.81%
CCN(CC)S(=O)(=O)c1ccc(Cl)c(NC(=O)COC(=O)c2c(C)noc2C)c1	inactive: 4.07%
Brc1c(C[n+]2ccccc2)nc2ccccn12	inactive: 5.1%
CCCCc1ccc(NC(=S)NCc2ccccc2OC)cc1	inactive: 3.81%
O=C(c1ccccc1)c1sc(N2CCOCC2)nc1-c1ccccc1	inactive: 17.4%
CCC(=O)Nc1ccc(C(=O)NNC(=O)c2ccc([N+](=O)[O-])cc2)cc1	inactive: 7.83%
COCCNC(=O)CSc1nc2cc(OC)c(OC)cc2c(=O)n1CCc1ccc(S(N)(=O)=O)cc1	inactive: 3.52%
CCOc1cc(C(=O)N(C)c2ccccc2)cc(OCC)c1OCC	inactive: 0.41%
N#Cc1c(-c2ccc(Cl)cc2)cc(-c2cccs2)nc1SCC(=O)O	inactive: 12.7%
CSc1nnc(CNS(=O)(=O)c2ccc(Cl)cc2)n1C	inactive: 3.31%
CC(=O)Oc1cc(C(=O)OCC(=O)N2CCc3ccccc3C2)cc(OC(C)=O)c1OC(C)=O	inactive: -33.2%
Cc1ccc(C)c(NC(=O)Cn2cc(C(=O)C3CC3)c3ccccc32)c1	inactive: 3.79%
COc1ccccc1OCc1nnc(SCC(=O)N2CCCC2)o1	inactive: -7.1%
CCCCC(=O)N(C)c1c(CC)nc2c(OCc3cccc(Cl)c3)cccn12	inactive: 4.14%
COc1cc(C(C)=O)ccc1OCC(=O)NCC(c1ccc(F)cc1)N1CCOCC1 (configuration not stated)	inactive: 12.8%
Cc1cc(=O)oc2cc(NC(=O)CCOc3ccccc3)ccc12	inactive: 7.04%
CCN(CCNC(=O)C1=C(C)C(=O)OC12CCC(C)CC2)c1ccccc1 (configuration not stated)	inactive: 13.5%
Cc1c(CN2CCC(n3nccc3NC(=O)C3CCOC3)CC2)[nH]c2ccccc12 (configuration not stated)	inactive: 8.06%
CN1CCN(C(=O)/C=C/c2cn(-c3ccccc3)nc2-c2ccc3c(c2)OCCO3)CC1	inactive: -2.52%

SMILES	growth rescue (activation)
COc1cccc(NC(=S)/C(=C(\[O-])c2ccc(OC(F)F)cc2)[n+]2ccccc2)c1	inactive: -2.17%
CCCCOc1ccc(C(=O)NCC(=O)OCC(=O)c2c(N)n(C)c(=O)n(C)c2=O)cc1	inactive: 2.91%
COc1ccc(CCNC(=O)COC(=O)c2ccc(N3CCCC3=O)cc2)cc1	inactive: 7.39%
S=C(NCCN1CCOCC1)NC1CCCCC1	inactive: -3.17%
O=C(CC(NCc1ccccn1)C(=O)O)Nc1ccccc1Cl (configuration not stated)	inactive: 4%
O=C(COC(=O)c1ccc2c(c1)OCCO2)Nc1ccc(F)cc1	inactive: 14.3%
Cc1ccc(Oc2nnc(-c3cccs3)c3ccccc23)cc1C	inactive: -9.32%
COCCn1c(-c2ccc(SC)cc2)nc2c1c(=O)[nH]c(=O)n2CC(C)C	inactive: 9.82%
Cc1ccc(C(=O)O/N=C(\N)c2ccccn2)cc1	inactive: 19.1%
CC(C)c1ccc(S(=O)(=O)/N=C2\C=C(NS(=O)(=O)c3ccccc3)C(=O)c3ccccc32)cc1	inactive: 27.4%
Cc1ccc(S(=O)(=O)CC(=O)Nc2nc3ccccc3s2)cc1	inactive: 13%
CCc1ccc(N(CC(=O)NCC2CCCO2)C(=O)CCC(=O)Nc2nccs2)cc1 (configuration not stated)	inactive: 15.9%
CNC(=O)C1CC(=O)N(c2ccc(OCC(=O)Nc3ccccc3)cc2)C1 (configuration not stated)	inactive: 10.3%
COc1ccc(S(N)(=O)=O)cc1C(=O)OCC(=O)Nc1ncc(Cl)c(C)c1Cl	inactive: 6.79%
CCOC(=O)C1CCCN(C(=O)c2cc(C)n(C(C)(C)C)n2)CC1 (configuration not stated)	inactive: 10.4%
Cc1cc(-c2c(C)[nH]n(-c3ccccc3)c2=O)n[nH]1	inactive: 18.6%
Clc1ccc(-c2cnc3ccccc3n2)cc1	inactive: 20.9%
O=C1Nc2ccccc2N(O)N1c1ccc(S(=O)(=O)N2CCCCCC2)cc1	inactive: 22.5%
O=C(NNC(=O)NC1CCCCC1)NC1CCCCC1	inactive: 11.9%
CC1CCCC(C)N1/N=C/c1ccc(C(=O)O)cc1 (configuration not stated)	inactive: -10.5%
O=C(Nc1ccc(Oc2c(F)c(F)c(F)c(F)c2F)cc1)OC1CCN2Cc3ccccc3N=C12 (configuration not stated)	inactive: 11.3%
COc1ccc(-c2cnc3c(NC(C)=O)cc(-c4ccc(S(C)(=O)=O)cc4)cn23)cc1OC	inactive: 1.38%

SMILES	growth rescue (activation)
CC1(C(=O)Nc2ccc(Cl)c(Cl)c2)CCN1C(=O)Cc1ccc(-c2ccccc2)cc1 (configuration not stated)	inactive: 13.4%
COc1cc2c(cc1OC)/C(=C/C(=O)c1ccc(C)cc1)NCC2	inactive: 15.3%
CCON1C(=O)C(C)(C)N(OCC)C(=O)C1(C)C	inactive: 1.85%
COc1cc(C2CC(c3ccccc3)=NN2c2ccccc2)ccc1OCC(=O)O (configuration not stated)	inactive: 5.47%
O=C(COC(=O)CCc1nc2ccccc2c(=O)[nH]1)Nc1ccccc1	inactive: 9.32%
COc1ccc(OC)c(NC(=O)CSc2nc3scc(C)c3c(=O)[nH]2)c1	inactive: 8.81%
Cn1c(CC(=O)Nc2ccccc2F)nnc1SCC(=O)Nc1nccs1	inactive: 3.74%
C=CCN(CC=C)C(=O)Cn1cnc([N+](=O)[O-])n1	inactive: 12.4%
O=C(Nc1nnc(SCc2ccc(Cl)cc2)s1)c1cnccn1	inactive: -5.89%
Cc1cccc(S(=O)(=O)Nc2nc3ccccc3nc2NCc2ccco2)c1	inactive: 21.7%
COCCNC(=O)C(c1ccc(O)cc1)N(Cc1ccccc1)C(=O)CCC(=O)Nc1nccs1 (configuration not stated)	inactive: 3.32%
COc1ccc(C)cc1S(=O)(=O)NNc1nc(C)cc(C)n1	inactive: 10.5%
Cc1ccc(NC(=O)c2ccco2)c(NC(=O)c2ccccc2)c1	inactive: -3.57%
Fc1ccc(NC(=S)Nc2cccnc2)cc1	inactive: -10.6%
Nn1c(SCC(=O)Nc2ccc3c(c2)OCCO3)nnc1C(F)(F)F	inactive: 4.96%
COc1ccc(Cl)cc1N(CC(=O)NCCSc1ccccn1)S(=O)(=O)c1ccccc1	inactive: 14.7%
O=C(Cc1ccccc1)NNC(=O)C1CC=CCC1 (configuration not stated)	inactive: -6.74%
COc1ccc(-c2cc3cc(OC)c(OC)cc3c(C)n2)cc1	inactive: 12.6%
O=C(CN1C(=O)CS/C1=C\c1nc(-c2ccc(Cl)cc2)cs1)Nc1cccnc1Cl	inactive: -22.7%
CS(=O)(=O)N1CCC(Oc2ccccc2C(=O)N2CCNC(=O)C2)CC1	inactive: -1.5%
Cc1ccc(C)c(N2CCN(c3ccc(N4C(=O)COCC4=O)cc3[N+](=O)[O-])CC2)c1	inactive: 7.57%
Cc1cccc(/C=C/c2nc3ccccc3c(=O)[nH]2)c1	inactive: 17.6%

SMILES	growth rescue (activation)
O=C(NCc1ccc(Cl)cc1)N1CCN(S(=O)(=O)c2ccccc2)CC1	inactive: 7.99%
COC(=O)CSc1[nH]c2ccc(Br)cc2c1[N+](=O)[O-]	inactive: -0.129%
COc1ccc(NC(=O)CN2C(=O)NC(C)(c3ccccc3)C2=O)c(OC)c1 (configuration not stated)	inactive: -0.726%
O=C(CCNS(=O)(=O)c1ccccc1C(F)(F)F)NCCCN1CCOCC1	inactive: 0.984%
COc1ccc(NS(=O)(=O)c2ccc(OC)c(NC(=O)CCC3CCCC3)c2)cc1	inactive: -19.1%
Cc1cccc(N(C(=O)c2snc(C(N)=O)c2N)C(C(=O)NCC2CCCO2)c2cccs2)c1 (configuration not stated)	inactive: -8.69%
COc1ccc(/C=C/C(=O)OCC(=O)c2c(C)[nH]c3ccccc23)cc1OC	inactive: 2.52%
O=C(Cc1ccc(Cl)cc1)OCC(=O)N1CCCCCC1	inactive: 9.24%
O=C(CN1C(=O)NC2(CCCc3ccccc32)C1=O)NCC(F)(F)F (configuration not stated)	inactive: 1.61%
ClCCN1C2=NCCCN2c2ccccc21	inactive: -6.56%
CCCN(CCC)C(=O)c1cc2c(=O)n3cccc(C)c3nc2s1	inactive: 3.33%
O=C(CCS(=O)(=O)c1ccc(Cl)cc1)NCCc1c[nH]c2ccccc12	inactive: 0.826%
Cc1cc(C(=O)OCC(=O)Nc2ccccc2Br)c(C)o1	inactive: 8.8%
CC(C)NC(=O)C(=O)NCCN1CCN(C(=O)c2ccc(C(C)(C)C)cc2)CC1	inactive: -3.54%
O=C(c1cccc(F)c1)N1CCN(C(=O)c2cc3nc(-c4ccco4)cc(C(F)(F)F)n3n2)CC1	inactive: 19.8%
CCS(=O)(=O)c1ncc(Cl)c(C(=O)N2CCN(c3ccc(OC)cc3)CC2)n1	inactive: 15.8%
O=C(NC1CCCCC1)c1ccc2c(c1)OCCO2	inactive: 0.0614%
Cc1ccc(CNC(=O)CCc2cn(C)c3ccccc23)cc1	inactive: 20.5%
CNc1c(NS(=O)(=O)c2ccc3c(c2)CCCC3)c(=O)oc2ccccc12	inactive: 7.37%

Reference: PubChem BioAssay AID1347073 (National Center for Advancing Translational Sciences (NCATS), 2019)
